The text below walks through data of US7160888B2, “[1,8]naphthyridin-2-ones and related compounds for the treatment of schizophrenia” (Warner Lambert Company LLC, priority 2003, dated 2007).

One assay concerns the target dopamine D2 receptor (Homo sapiens, UniProt P14416). Description: biochemical. As to conditions: D2 Ki (nM), Table 1; 0.4 nM [3H]spiperone, CHO-hD2L membranes.
Sequence of UniProt P14416 (P14416 whole entry): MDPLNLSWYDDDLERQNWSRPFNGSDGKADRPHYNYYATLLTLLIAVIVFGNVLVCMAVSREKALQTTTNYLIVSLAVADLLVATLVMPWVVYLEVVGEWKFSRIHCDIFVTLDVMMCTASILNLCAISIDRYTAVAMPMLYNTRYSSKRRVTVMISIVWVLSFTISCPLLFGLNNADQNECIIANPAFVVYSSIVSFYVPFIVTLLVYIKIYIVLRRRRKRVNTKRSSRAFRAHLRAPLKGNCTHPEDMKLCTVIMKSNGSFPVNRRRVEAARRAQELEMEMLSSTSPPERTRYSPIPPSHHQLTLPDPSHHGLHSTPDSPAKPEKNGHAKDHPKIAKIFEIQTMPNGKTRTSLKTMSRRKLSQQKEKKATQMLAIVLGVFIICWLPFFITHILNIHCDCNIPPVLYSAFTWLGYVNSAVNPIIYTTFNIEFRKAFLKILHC
In the case of `Cc1c(F)ccc(N2CCN(CCCCCc3ccc4c(n3)NC(=O)CC4)CC2)c1Cl` [Example C15, 7-{5-[4-(2-Chloro-4-fluoro-3-methyl-phenyl)-piperazin-1-yl]-pentyl}-3,4-dihydro-1H-[1,8]naphthyridin-2-one], the Ki (usually a measure of affinity in units of concentration, obtained from inhibition or displacement) stood at 32 nM.
The same measure, in the same setting: the same measure for `Cc1cccc(N2CCN(CCCCCc3ccc4c(n3)NC(=O)CC4)CC2)n1` [Example C16, 7-{5-[4-(6-Methyl-pyridin-2-yl)-piperazin-1-yl]-pentyl}-3,4-dihydro-1H-[1,8]naphthyridin-2-one]: 46.7 nM.
Same read-out and setting: in the case of `CCc1cccc(N2CCN(CCCCCc3ccc4c(n3)NC(=O)CC4)CC2)n1` [Example C17, 7-{5-[4-(6-Ethyl-pyridin-2-yl)-piperazin-1-yl]-pentyl}-3,4-dihydro-1H-[1,8]naphthyridin-2-one] it was 20.5 nM.
Same read-out and setting: the same measure for `O=C1CCc2ccc(CCCCCN3CCN(c4cccc(C5CC5)n4)CC3)nc2N1` [Example C18, 7-{5-[4-(6-Cyclopropyl-pyridin-2-yl)-piperazin-1-yl]-pentyl}-3,4-dihydro-1H-[1,8]naphthyridin-2-one]: 7.1 nM; for `Cc1cc(C)nc(N2CCN(CCCCCc3ccc4c(n3)NC(=O)CC4)CC2)c1` [Example C19, 7-{5-[4-(4,6-Dimethyl-pyridin-2-yl)-piperazin-1-yl]-pentyl}-3,4-dihydro-1H-[1,8]naphthyridin-2-one]: 10.4 nM.
Compound `Cc1cc(=O)[nH]c2nc(OCCCCN3CCN(c4cccc(Cl)c4Cl)CC3)ccc12` [Example D1, 7-{4-[4-(2,3-Dichloro-phenyl)-piperazin-1-yl]-butoxy}-4-methyl-1H-[1,8]naphthyridin-2-one] displayed a Ki of 1 nM.
On the same count and under the same terms, the same measure for `Cc1cc(=O)[nH]c2nc(CCCCCN3CCN(c4cccc(Cl)c4Cl)CC3)ccc12` [Example D3, 7-{5-[4-(2,3-Dichloro-phenyl)-piperazin-1-yl]-pentyl}-4-methyl-1H-[1,8]naphthyridin-2-one]: 4.5 nM.
The same measure, in the same setting: the same measure for `Cc1cc2ccc(CCCCCN3CCN(c4cccc(Cl)c4Cl)CC3)nc2[nH]c1=O` [Example D5, 7-{5-[4-(2,3-Dichloro-phenyl)-piperazin-1-yl]-pentyl}-3-methyl-1H-[1,8]naphthyridin-2-one]: 1.8 nM; for `Cc1c(C)c2ccc(OCCCCN3CCN(c4cccc(Cl)c4Cl)CC3)nc2[nH]c1=O` [Example D7, 7-{4-[4-(2,3-Dichloro-phenyl)-piperazin-1-yl]-butoxy}-3,4-dimethyl-1H-[1,8]naphthyridin-2-one]: 3 nM; for `Cc1c(C)c2ccc(CCCCCN3CCN(c4cccc(Cl)c4Cl)CC3)nc2[nH]c1=O` [Example D8, 7-{5-[4-(2,3-Dichloro-phenyl)-piperazin-1-yl]-pentyl}-3,4-dimethyl-1H-[1,8]naphthyridin-2-one]: 2.2 nM.
The same measure, in the same setting: the same measure for `O=c1[nH]c2nc(OCCCCN3CCN(c4cccc(Cl)c4Cl)CC3)ccc2cc1F` [Example D9, 7-{4-[4-(2,3-Dichloro-phenyl)-piperazin-1-yl]-butoxy}-3-fluoro-1H-[1,8]naphthyridin-2-one]: 1 nM; for `O=c1[nH]c2nc(OCCCCN3CCN(c4cccc5ccccc45)CC3)ccc2cc1F` [Example D10, 3-Fluoro-7-[4-(4-naphthalen-1-yl-piperazin-1-yl)-butoxy]-1H-[1,8]naphthyridin-2-one]: 0.9 nM.
Take `O=c1[nH]c2nc(OCCCCN3CCN(c4cccc5ccccc45)CC3)ccc2cc1CC(F)(F)F` [Example D11, 7-[4-(4-Naphthalen-1-yl-piperazin-1-yl)-butoxy]-3-(2,2,2-trifluoro-ethyl)-1H-[1,8]naphthyridin-2-one]: the Ki worked out at 1.4 nM.
The same measure, in the same setting: in the case of `CC1(C)Cc2ccc(CCCCCN3CCN(c4cccc(Cl)c4Cl)CC3)nc2NC1=O` [Example D12, 7-{5-[4-(2,3-Dichloro-phenyl)-piperazin-1-yl]-pentyl}-3,3-dimethyl-3,4-dihydro-1H-[1,8]naphthyridin-2-one] it was 5 nM; in that of `CC1(C)Cc2ccc(OCCCCN3CCN(c4cccc(Cl)c4Cl)CC3)nc2NC1=O` [Example D13, 7-{4-[4-(2,3-Dichloro-phenyl)-piperazin-1-yl]-butoxy}-3,3-dimethyl-3,4-dihydro-1H-[1,8]naphthyridin-2-one], 2.8 nM.
Same read-out and setting: in the case of `CC1(C)C(=O)Nc2nc(OCCCCN3CCN(c4cccc(Cl)c4Cl)CC3)ccc2C1=O` [Example D14, 7-{4-[4-(2,3-Dichloro-phenyl)-piperazin-1-yl]-butoxy}-3,3-dimethyl-1H-[1,8]naphthyridine-2,4-dione] it was 0.4 nM; in that of `CC1(C)C(=O)Nc2nc(OCCCCN3CCN(c4cccc(Cl)c4Cl)CC3)ccc2C1O` (centres unmarked) [Example D15, 7-{4-[4-(2,3-Dichloro-phenyl)-piperazin-1-yl]-butoxy}-4-hydroxy-3,3-dimethyl-3,4-dihydro-1H-[1,8]naphthyridin-2-one], 0.6 nM; in that of `CC1(C)CC(=O)Nc2nc(OCCCCN3CCN(c4cccc5ccccc45)CC3)ccc21` [Example D16, 4,4-Dimethyl-7-[4-(4-naphthalen-1-yl-piperazin-1-yl)-butoxy]-3,4-dihydro-1H-[1,8]naphthyridin-2-one], 3 nM.
On the same count and under the same terms, the same measure for `CC1(C)CC(=O)Nc2nc(OCCCCN3CCN(c4cccc(Cl)c4Cl)CC3)ccc21` [Example D17, 7-{4-[4-(2,3-Dichloro-phenyl)-piperazin-1-yl]-butoxy}-4,4-dimethyl-3,4-dihydro-1H-[1,8]naphthyridin-2-one]: 3.9 nM; for `CC1(C)CC(=O)Nc2nc(OCCCCN3CCN(c4cccc5c4CCCC5)CC3)ccc21` [Example D18, 4,4-Dimethyl-7-{4-[4-(5,6,7,8-tetrahydro-naphthalen-1-yl)-piperazin-1-yl]-butoxy}-3,4-dihydro-1H-[1,8]naphthyridin-2-one]: 4.7 nM.
`CC1(C)CC(=O)Nc2nc(OCCCCN3CCN(c4cccc5c4CCC5)CC3)ccc21` [Example D19, 7-[4-(4-Indan-4-yl-piperazin-1-yl)-butoxy]-4,4-dimethyl-3,4-dihydro-1H-[1,8]naphthyridin-2-one]: the affinity corresponds to a Ki of 3.2 nM.
The same measure, in the same setting: in the case of `Cc1c(Cl)cccc1N1CCN(CCCCOc2ccc3c(n2)NC(=O)CC3(C)C)CC1` [Example D21, 7-{4-[4-(3-Chloro-2-methyl-phenyl)-piperazin-1-yl]-butoxy}-4,4-dimethyl-3,4-dihydro-1H-[1,8]naphthyridin-2-one] it was 12.5 nM; in that of `CC1(C)CC(=O)Nc2nc(OCCCCN3CCN(c4cccc(C5CC5)n4)CC3)ccc21` [Example D22, 7-{4-[4-(6-Cyclopropyl-pyridin-2-yl)-piperazin-1-yl]-butoxy}-4,4-dimethyl-3,4-dihydro-1H-[1,8]naphthyridin-2-one], 5.2 nM; in that of `CCc1ccccc1N1CCN(CCCCOc2ccc3c(n2)NC(=O)CC3(C)C)CC1` [Example D23, 7-{4-[4-(2-Ethyl-phenyl)-piperazin-1-yl]-butoxy}-4,4-dimethyl-3,4-dihydro-1H-[1,8]naphthyridin-2-one], 6.9 nM.
Still for that read-out and setting: in the case of `CC(C)COc1ccccc1N1CCN(CCCCOc2ccc3c(n2)NC(=O)CC3(C)C)CC1` [Example D24, 7-{4-[4-(2-Isobutoxy-phenyl)-piperazin-1-yl]-butoxy}-4,4-dimethyl-3,4-dihydro-1H-[1,8]naphthyridin-2-one] it was 13.4 nM; in that of `CC(C)Oc1ccccc1N1CCN(CCCCOc2ccc3c(n2)NC(=O)CC3(C)C)CC1` [Example D25, 7-{4-[4-(2-Isopropoxy-phenyl)-piperazin-1-yl]-butoxy}-4,4-dimethyl-3,4-dihydro-1H-[1,8]naphthyridin-2-one], 1.6 nM; in that of `Cc1cc2c(nc1OCCCCN1CCN(c3cccc4ccccc34)CC1)NC(=O)CC2` [Example E2, 6-Methyl-7-[4-(4-naphthalen-1-yl-piperazin-1-yl)-butoxy]-3,4-dihydro-1H-[1,8]naphthyridin-2-one], 1.3 nM.
In turn, `O=C1CCc2cc(F)c(OCCCCN3CCN(c4cccc(Cl)c4Cl)CC3)nc2N1` [Example E3, 7-{4-[4-(2,3-Dichloro-phenyl)-piperazin-1-yl]-butoxy}-6-fluoro-3,4-dihydro-1H-[1,8]naphthyridin-2-one] returned a Ki of 1 nM.
On the same count and under the same terms, in the case of `O=C1CCc2cc(F)c(OCCCCN3CCN(c4cccc5ccccc45)CC3)nc2N1` [Example E4, 6-Fluoro-7-[4-(4-naphthalen-1-yl-piperazin-1-yl)-butoxy]-3,4-dihydro-1H-[1,8]naphthyridin-2-one] it was 2.2 nM.

The assay is the same for the next values; noted with them: D2 Ki (nM), Table 2; 0.4 nM [3H]spiperone, CHO-hD2L membranes.
The compound `O=C1CCc2cc(F)c(OCCCCN3CCN(c4cccc5cccnc45)CC3)nc2N1` [Example D1′, 6-Fluoro-7-[4-(4-quinolin-8-yl-piperazin-1-yl)-butoxy]-3,4-dihydro-1H-[1,8]naphthyridin-2-one] came in with a Ki of 2 nM.
The compound `O=C1CCc2cc(F)c(OCCCCN3CCN(c4cccc5cnccc45)CC3)nc2N1` [Example D2′, 6-Fluoro-7-[4-(4-isoquinolin-5-yl-piperazin-1-yl)-butoxy]-3,4-dihydro-1H-[1,8]naphthyridin-2-one] returned a Ki of 5 nM.
For the compound `O=c1ncc2ccc(OCCCCN3CCN(c4cccc5c4OCCC5)CC3)nc2[nH]1` [Example E1′, 7-[4-(4-Chroman-8-yl-piperazin-1-yl)-butoxy]-1H-pyrido[2,3-d]pyrimidin-2-one], the affinity, expressed as Ki, was 1 nM.
Regarding `O=C1NCc2ccc(OCCCCN3CCN(c4cccc5c4OCCC5)CC3)nc2N1` [Example E2′, 7-[4-(4-Chroman-8-yl-piperazin-1-yl)-butoxy]-3,4-dihydro-1H-pyrido[2,3-d]pyrimidin-2-one], the Ki came out at 0.5 nM.
Regarding `O=C1NCc2ccc(OCCCCN3CCN(c4cccc5c4OCC5)CC3)nc2N1` [Example E3′, 7-{4-[4-(2,3-Dihydro-benzofuran-7-yl)-piperazin-1-yl]-butoxy}-3,4-dihydro-1H-pyrido[2,3-d]pyrimidin-2-one], affinity was put at a Ki of 0.7 nM.
Same read-out and setting: in the case of `O=C1NCc2ccc(OCCCCN3CCN(c4cccc5c4OCCCO5)CC3)nc2N1` [Example E4′, 7-{4-[4-(3,4-Dihydro-2H-benzo[b][1,4]dioxepin-6-yl)-piperazin-1-yl]-butoxy}-3,4-dihydro-1H-pyrido[2,3-d]pyrimidin-2-one] it was 0.4 nM.
